According to PubChem BioAssay AID463173 (ICCB-Longwood Screening Facility, Harvard Medical School, 2010):
Out of some 52,000 compounds screened, about 1,700 (3.3%) were called active. Cut-off read from the data, not from the text of the source: active = survival mostly below about 52% (no sharp cut-off); inactive = mostly above about 56%. The list shows a part of the results.

System: Wild type
Assay: growth inhibition of S. aureus wild type versus tarO mutant, primary screen, teichoic acid synthesis inhibitors, RN4220, OD600 (AID 463173)
Conditions: S. aureus RN4220 wild type/DeltatarO growth, OD600, 18 h, active compounds read low, screened at 18.75 µg/mL (by protocol)

Compound	survival
Cc1ccc(CNC(=O)c2c[nH]c3ccc(S(=O)(=O)N4CCOCC4)cc3c2=O)cc1	inactive: 82%
COc1ccc(OC)c(NC(=O)C(C)n2c(=O)cc(C)c3c(C)nn(-c4ccccc4)c32)c1 (centres undefined)	inactive: 70%
Cc1ccc(Cc2cnc(NC(=O)c3ccc4c(c3)CC(c3ccccc3)OC4=O)s2)cc1 (centres undefined)	inactive: 114%
O=C(NC1CC(=O)N(c2ccc(F)cc2)C1)C1CCCC1 (centres undefined)	inactive: 71%
Cc1c(C(=O)Nc2ccc(F)cc2F)oc2c1-c1nn(Cc3c(F)cccc3Cl)cc1CC2	inactive: 86%
CCc1ccc(N2CC(c3nnc(NC(=O)c4ccco4)s3)CC2=O)cc1 (centres undefined)	inactive: 78%
N#Cc1ccccc1NC(=O)CSc1nc(-c2ccccc2)cc(C(F)(F)F)c1C#N	inactive: 93%
Nn1c(-c2ccccc2)cn2c(cc3sccc32)c1=S	inactive: 110%
CC(=O)c1ccc(S(=O)(=O)Nc2ccc(-c3cn4c(C)csc4n3)cc2)cc1	active: -6%
CCOC(=O)c1c(NC(=O)c2ccc(C)cc2)sc2c1CCCCC2	active: -1%
COc1ccc(C)cc1NC(c1nnc(-c2ccccc2)o1)c1ccc(F)cc1Cl (centres undefined)	active: 3%
COc1cc(Cl)c(C)cc1NC(=O)c1cc(S(=O)(=O)N2CCCC2)ccc1F	inactive: 32%
COC(=O)c1ccc(S(N)(=O)=O)o1	inactive: 109%
Cc1cc(NC(=O)c2ccccc2F)ccc1-c1nc2ccccc2s1	inactive: 88%
Cc1ccc(-n2cnc3cc(C(=O)NCCC4=CCCCC4)ccc32)c(C)c1	inactive: 88%
CC1(C)Cc2c(c(N3CCNCC3)[nH]c(=S)c2C#N)CO1	inactive: 106%
O=C(c1ccc2c(c1)C(=O)N(CCCO)C2=O)c1ccc2c(c1)C(=O)N(CCCO)C2=O	inactive: 100%
CCOC(=O)c1c(NC(=O)/C(C#N)=C/c2ccc(OC)cc2)sc2c1CCC2	inactive: 74%
CCOC(=O)Cc1ccc(NC(=O)N(Cc2ccc(OC)cc2)C2CCN(C(C)=O)CC2)cc1	inactive: 72%
Nc1cc(N)nc(SCc2ccc(Cl)cc2)n1	inactive: 109%
COc1ccc(NC(=O)c2ccc3oc(=O)c(S(=O)(=O)c4ccc(F)cc4)cc3c2)cc1OC	inactive: 71%
Cc1cccc(C)c1OCC(=O)N(Cc1ccccc1F)C1CCS(=O)(=O)C1 (centres undefined)	inactive: 91%
CCc1ccc(NC(=O)c2sc(-n3nc(C)c(CCC(C)C)c3C)nc2C)cc1	inactive: 127%

Compound	survival
COc1ccc(C(=O)N2CC(=O)Nc3ccc(Br)cc3C2c2ccc(F)cc2)cc1OC (centres undefined)	inactive: 79%
CCn1cc2nc(SCC(=O)Nc3cc(OC)ccc3OC)n(Cc3ccc(Cl)cc3)c(=O)c2n1	inactive: 61%
Cc1ccc(-n2c(SCC(=O)N3CCc4ccccc43)nc3c([nH]c4ccccc43)c2=O)cc1	inactive: 120%
Cc1cc(N2CCN(C3=NCC(C)(C)S3)CC2)n2c(nc3ccccc32)c1C#N	inactive: 110%
CCOc1ccc2nc(NCCNC(=O)C(C)(C)C)c(C)cc2c1	inactive: 113%
COc1cc(C2c3c(-c4cc(C)ccc4O)n[nH]c3C(=O)N2Cc2cccnc2)cc(OC)c1OC (centres undefined)	inactive: 95%
CCOc1ccccc1NC(=O)c1ccc2c(c1)CCN2S(C)(=O)=O	inactive: 89%
CCS(=O)(=O)N1CCc2cc(C(=O)Nc3cc([N+](=O)[O-])ccc3C)ccc21	inactive: 79%
CCOC(=O)c1c(CN(C)C)oc2ccc(O)cc12	inactive: 109%
O=C(Nc1ccc(OC(F)(F)F)cc1)c1cc2c(=O)n3ccccc3nc2s1	inactive: 86%
O=C(O)/C=C/c1ccc(-c2ccccc2)o1	inactive: 99%
COc1ccc(C(=O)Nc2ccc3nc(SCC(=O)N4CCCC4)sc3c2)cc1	inactive: 95%
COc1ccccc1CCNC(=O)Cn1ccc2cc(S(=O)(=O)N3CCCCC3)ccc21	inactive: 87%
CCCC(=O)Nc1nnc(SCc2cc(=O)n3ccccc3n2)s1	inactive: 112%
O=C(CCn1c(=O)c2cccn2c2cccnc21)N1CCN(c2ccc(F)cc2)CC1	inactive: 102%
Cn1c(=O)c(=O)n(C)c2cc(S(=O)(=O)N3CCCC3C(=O)Nc3cccc(F)c3)ccc21 (centres undefined)	inactive: 71%
O=C(NC1CCCCC1)c1ccc2c(c1)N(Cc1ccccc1F)C(=O)c1ccccc1S2	inactive: 85%
CCCCn1c(CN2CCN(c3ccc(OC)cc3)CC2)nc2c1c(=O)[nH]c(=O)n2C	inactive: 80%
Cc1cccc(NC(=O)CSc2nnc(CNC(=O)c3cccc(C)c3)n2-c2ccccc2)c1	inactive: 72%
Cc1ccn2c(Nc3ccccc3C)c(-c3ccncc3)nc2c1	inactive: 80%
CCN(CCN(C)C)C(=O)Cn1ncc2c([nH]c3ccc(C)cc32)c1=O	inactive: 92%
Cc1ccc(CNC(=O)C2CCN(Cc3nc(-c4ccccc4C)oc3C)CC2)cc1	inactive: 88%
COc1ccc(-c2noc(CN(C(=O)c3ccccc3Cl)C(C)C)n2)cc1	inactive: 97%

Compound	survival
Cc1ccccc1Cn1c(-c2cccs2)nc2ccccc21	active: 26%
Cc1ccc2nc(CSc3nnc(NC(=O)CC(C)C)s3)cc(=O)n2c1	inactive: 60%
Cc1cc(-c2ccccc2)nc2cc(C(=O)N3CCCCCC3)nn12	inactive: 121%
O=C(CSc1nc2ccccc2o1)N=Nc1c(O)[nH]c2ccccc12	inactive: 99%
CCOc1ccc(CNC(=O)CCC(=O)N2Cc3ccccc3Oc3ncccc32)cc1	active: 0%
Cc1ccc(Cn2c(CN3CCC(C(=O)NCc4cccnc4)CC3)cc3ccccc32)cc1	inactive: 75%
O=C1CCCC(O)=C1C=Nc1ccc2c(c1)oc1ccccc12	inactive: 113%
CC(=O)c1cccc(NC(=O)CCS(=O)(=O)c2ccc3c(c2)n(C)c(=O)c(=O)n3C)c1	inactive: 89%
COc1ccc(OC)c(NC(=O)CSc2c3c(nc4cc(Cl)ccc24)CCCC3)c1	inactive: 80%
NC(=O)CSc1nc2cc3c(cc2c(=O)n1CCCCCC(=O)NCc1ccc2c(c1)OCO2)OCO3	inactive: 55%
COc1ccc(OC)c(NC(=O)C2CCCN(S(=O)(=O)c3ccc4[nH]c(=O)ccc4c3)C2)c1 (centres undefined)	inactive: 91%
O=C(Nc1ccccc1C(F)(F)F)C1(S(=O)(=O)c2ccc(Cl)cc2)CC1	inactive: 94%
CN1CC(=O)N(CC(=O)Nc2cccc(C#N)c2)c2ccccc2C1=O	inactive: 71%
Cc1c(Cl)cccc1NC(=O)Nc1nnc(N(C)C2CCCCC2)s1	inactive: 111%
Cc1ccc(CCNC(=O)c2cnc3c(C)cccn3c2=O)cc1	inactive: 88%
COc1ccc(-c2cn3c(n2)sc2cc(C(=O)NCC(C)c4ccccc4)ccc23)cc1 (centres undefined)	inactive: 78%
CCOC(=O)N1CCN(Cc2nc3cc(NC(=O)c4ccc(F)cc4)ccc3n2C(C)C)CC1	inactive: 86%
CCN(CC)Cc1ccc(C(=O)O)o1	inactive: 100%
CCOCCCNC(=O)C(NC(=O)C1CCC(C)CC1)C(C)C (centres undefined)	inactive: 67%
CN(C1CCCCC1)S(=O)(=O)c1ccc2c(c1)c(=O)c(C(=O)N1CCN(c3ccc(F)cc3)CC1)cn2C	inactive: 87%
CCCCCCNC(=O)CCc1c(C)nc2nc(-c3cc(OC)cc(OC)c3)nn2c1C	inactive: 87%
Cc1ccc(C(=O)c2cn(Cc3cc(C)ccc3C)c3nc(C)ccc3c2=O)cc1	inactive: 62%
Cc1cc(C)nc(SC2=CS(=O)(=O)c3ccccc32)n1	inactive: 99%

Compound	survival
Cc1ccc(-c2nnn(CC(=O)N(c3ccccc3)C(C(=O)NCc3ccccc3)c3ccncc3)n2)o1 (centres undefined)	inactive: 109%
CCc1ccccc1NC(=O)c1nn(-c2ccc(C)cc2)c(=O)c2c1c1ccccc1n2C	inactive: 130%
O=C(N/N=C1\SCC(=O)N1CCc1ccccc1)c1cccs1	inactive: 100%
CC(C)c1cc(C(=O)NCc2ccc(F)cc2)no1	inactive: 63%
CCS(=O)(=O)n1nc(-c2ccco2)nc1NCc1ccc(C(C)C)cc1	inactive: 86%
O=C(Nc1nccs1)c1ccc(S(=O)(=O)NCC2CCCCC2)cc1	inactive: 106%
CC(=O)Nc1ccc(NC(=O)C(NC(=O)C2CCC(C)CC2)C(C)C)cc1 (centres undefined)	inactive: 122%
Cc1ccc(-n2cnc3cc(C(=O)NC4CCCCCC4)ccc32)c(C)c1	inactive: 83%
COc1ccc(C)cc1NC(=O)C1CCC(CNS(=O)(=O)c2ccc3c(c2)CCCC(=O)N3)CC1 (centres undefined)	inactive: 60%
O=C(Nc1ccc(F)cc1)c1ccc(CN2CC(=O)N3CCCCC3C2=O)cc1 (centres undefined)	active: -6%
COc1ccc(NC(=O)CC2SC(=Nc3ccccc3)N(CCO)C2=O)cc1 (centres undefined)	inactive: 106%
CC(C)c1ccc(-c2noc(C3CCCN(S(C)(=O)=O)C3)n2)cc1 (centres undefined)	inactive: 102%
Cc1ccc(NC(=O)CS(=O)CC(=O)NC2CCN(Cc3ccccc3)CC2)c(C)c1 (centres undefined)	inactive: 96%
CCc1ccc(Cn2nnc3c(=O)[nH]c(C4CCCN(C(=O)c5cccc(Cl)c5)C4)nc32)cc1 (centres undefined)	inactive: 76%
CC(C)c1ccc(OCC(=O)Nc2cc(-c3ccccc3)no2)cc1	inactive: 127%
Cc1ccc(C(C)N2CCN(S(=O)(=O)c3ccc4c(c3)OCCO4)CC2)cc1C (centres undefined)	inactive: 100%
CC(=O)c1c(C)n(S(=O)(=O)c2ccc(Cl)cc2)c2ccc(NS(=O)(=O)c3ccc(Cl)cc3)cc12	inactive: 79%
Cc1cc(C)cc(NC(=O)Cn2nc(N3CCN(c4ccccc4)CC3)ccc2=O)c1	inactive: 69%
COc1cc(CN(C(=O)c2ccccc2Br)c2ccccn2)cc(OC)c1OC	inactive: 91%
COc1ccc(S(=O)(=O)NCCc2sc(-c3cccnc3)nc2C)cc1OC	inactive: 75%
